# Measurements published in article PMC4336329 (PLoS ONE, 2015).
# Out of some 310,000 compounds screened, about 14,000 (4.5%) showed an effect of 50% or more. Effects have a minus sign here. Some of the results follow.
# Molecular target: human ether-à-go-go-related gene (hERG) potassium channel (human, UniProt Q12809)
# Assay: primary screen, population patch clamp on CHO cells stably expressing hERG
# 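Also: peak tail current of the secondary pulse compared with the same well before compound.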
# Sequence of human ether-à-go-go-related gene (hERG) potassium channel (Q12809 whole entry, looked up): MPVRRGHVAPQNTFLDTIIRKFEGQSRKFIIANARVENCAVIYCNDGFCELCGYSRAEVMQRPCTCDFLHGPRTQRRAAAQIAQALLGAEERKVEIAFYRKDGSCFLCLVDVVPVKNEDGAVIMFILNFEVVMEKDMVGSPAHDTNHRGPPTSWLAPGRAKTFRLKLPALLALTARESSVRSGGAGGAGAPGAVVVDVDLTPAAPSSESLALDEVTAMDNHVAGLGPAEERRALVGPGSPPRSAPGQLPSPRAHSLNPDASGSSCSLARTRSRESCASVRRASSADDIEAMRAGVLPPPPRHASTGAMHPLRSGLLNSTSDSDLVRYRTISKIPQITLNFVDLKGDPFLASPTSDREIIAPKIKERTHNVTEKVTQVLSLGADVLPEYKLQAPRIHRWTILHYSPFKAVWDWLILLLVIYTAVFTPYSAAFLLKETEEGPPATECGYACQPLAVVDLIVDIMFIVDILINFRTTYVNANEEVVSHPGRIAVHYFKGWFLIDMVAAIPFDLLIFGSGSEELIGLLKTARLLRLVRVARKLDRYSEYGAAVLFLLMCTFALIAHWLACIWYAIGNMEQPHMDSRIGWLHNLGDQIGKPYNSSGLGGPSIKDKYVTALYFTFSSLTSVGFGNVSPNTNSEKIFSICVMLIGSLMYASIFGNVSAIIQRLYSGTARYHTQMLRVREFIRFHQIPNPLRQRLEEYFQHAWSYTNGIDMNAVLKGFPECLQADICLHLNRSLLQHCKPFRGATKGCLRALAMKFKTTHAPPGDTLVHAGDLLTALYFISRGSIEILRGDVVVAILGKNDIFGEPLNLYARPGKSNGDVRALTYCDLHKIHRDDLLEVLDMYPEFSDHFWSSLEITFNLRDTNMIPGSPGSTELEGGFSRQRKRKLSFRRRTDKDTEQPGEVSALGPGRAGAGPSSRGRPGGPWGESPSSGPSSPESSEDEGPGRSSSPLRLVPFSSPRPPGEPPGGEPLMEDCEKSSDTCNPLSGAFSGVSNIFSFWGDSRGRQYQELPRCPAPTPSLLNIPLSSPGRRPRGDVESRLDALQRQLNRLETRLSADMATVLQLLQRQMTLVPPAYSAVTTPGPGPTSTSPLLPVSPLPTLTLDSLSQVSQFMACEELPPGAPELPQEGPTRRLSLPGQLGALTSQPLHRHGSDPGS
row,SMILES,"hERG current change (%, negative = inhibition) at 10uM [%]"
1,O=C([O-])c1ncc(Cl)c(Cl)c1Cl.[NH4+],16.2
2,O=C(COc1ccc2c3c(c(=O)oc2c1)CCC3)NCCCN1CCOCC1,12.1
3,COCCn1c(N)c(NCc2ccccc2)c(=O)[nH]c1=O,17
4,CSCCC(NC(=O)c1ccccc1Cl)C(=O)NCc1ccncc1 (stereo not shown),10.1
5,COc1ccc(OCCCC(=O)Nc2ccc(OC)c(S(=O)(=O)N3CCOCC3)c2)cc1,-30.5
6,CCCc1cc(=O)oc2cc(OCC(=O)Nc3ccccn3)ccc12,-7.98
7,O=C(/C=C/c1c(F)cccc1Cl)Nc1nc2ccccc2[nH]1,10.8
8,O=C(NCCc1cccc(C(F)(F)F)c1)C1CCC(=O)N(Cc2ccc(Cl)cc2)C1 (stereo not shown),-59
9,O=C(NCC1CCCO1)Nc1ccc(Cl)cc1 (stereo not shown),-11.5
10,COc1cc(C(O)P(=O)(OC2CCCCC2)c2ccc(N(C)C)cc2)cc(OC)c1OC (stereo not shown),-3.85
11,O=C(CCCn1c(=O)[nH]c2cc(Cl)ccc2c1=O)NCCCN1CCCC1=O,0.943
12,O=C(OCc1cc2ccccc2[nH]c1=O)c1ccccc1,6.79
13,CCOc1ccc(CCNC(=O)COC(=O)c2ccco2)cc1OCC,2.54
14,O=C(CNC(=O)c1cccs1)OCC(=O)c1cccs1,1.19
15,CN(Cc1ccccc1)C(=O)Cn1c(=O)oc2cc(S(=O)(=O)NCc3ccccc3)ccc21,-4.36
16,CCn1c(=O)cc(OCC(=O)N2CCC3(CC2)OCCO3)c2ccccc21,7.83
17,Cc1cc(C)n(CC(O)COc2ccc(C(C)C)c(C)c2)n1 (stereo not shown),11.7
18,CC1Cc2ccccc2N1C(=O)CSc1nnc(-c2ccc(S(=O)(=O)N3CCCC3)cc2)o1 (stereo not shown),-0.906
19,CC(C)c1ccc(OCC(=O)Nc2ccc(OC(F)(F)F)cc2)cc1,4.88
20,Cc1ccc(OCCCc2c(C)n[nH]c2C)cc1,10.8
21,COc1cccc2cc(-c3cc(=O)oc4ccc(OCC(C)=O)cc34)oc12,9.86
22,CC(=O)c1c(C)[nH]c(C(=O)N2CCc3ccccc3C2)c1C,-6.42

row,SMILES,"hERG current change (%, negative = inhibition) at 10uM [%]"
1,COc1ccc(OC)c(/C=C/C(=O)OCC(=O)c2c(N)n(C)c(=O)n(C)c2=O)c1,12.4
2,COc1ccc2c(c1OC)C(=O)N1N=C(c3ccc(Br)cc3)CC21 (stereo not shown),-15.8
3,Cc1ccc(NC(=O)Cn2nnc(C(=O)NCc3cccs3)c2N)cc1,2.1
4,Cc1c(CNCCc2ccccc2)c(C(=O)O)c(C)n1-c1ccccc1,12.1
5,O=C(c1cc(-c2ccncc2)nc2ccccc12)N1CCN(c2ccc(N3CCOCC3)nn2)CC1,-42.4
6,CCN1C(=O)c2n[nH]c(C(=O)OC)c2C1=O,16
7,O=C1c2ccccc2C(=O)N1CCOc1ccccc1,-0.552
8,COc1ccc(N(Cc2cc3cc(OC)ccc3[nH]c2=O)C(=O)C2CCCO2)cc1 (stereo not shown),-14.3
9,CCN(CCCNC(=O)CSc1cc(=O)n(C)c2cc(Cl)ccc12)Cc1ccccc1,-58.8
10,CCC(C)Nc1nc(OC)nc(N(C)C#N)n1 (stereo not shown),13.3
11,CC1(C)C2CCC1(C)C(OC(=O)C[n+]1ccccc1N)C2.[Br-] (stereo not shown),-35.3
12,O=C(NC1CCCCC1)c1cccc(OCc2ccccc2)c1,-3.56
13,CCS(=O)(=O)NCCc1cc2c(OC)ccc(OC)c2[nH]c1=O,11.1
14,CC1CC(C)CN(CCCNC(=O)CCNC(=O)Cn2ccc3ccccc3c2=O)C1 (stereo not shown),-5.54
15,Cc1ccc(C)c(NC(=S)N2CCN(S(C)(=O)=O)CC2)c1,14.3
16,Cc1ccccc1NC(=O)c1c(Cl)nc(C)c(Cl)c1C,-8.36
17,Cc1ccc(-n2c(-c3nn(C)c(C)c3Cl)n[nH]c2=S)cc1,16
18,CCOC(=O)c1sc(NC(=S)NC(=O)c2ccco2)nc1C,6.8
19,CN(C)CCN(C(=O)c1ccc2c(c1)CCCC2)c1nc2cc3c(cc2s1)OCCO3.Cl,5.76
20,Cc1ccc(-n2ncc3c2CC(C)(C)CC3NC(=O)CCN2CCCO2)cc1 (stereo not shown),-37.7
21,CCCCn1c(SCC(=O)NCc2ccco2)nc2c1c(=O)n(C)c(=O)n2C,-4.63
22,CC(C)(C)NC(=O)Nc1cccc(Cl)c1Cl,10.6

row,SMILES,"hERG current change (%, negative = inhibition) at 10uM [%]"
1,O=C(Nc1ccc(Cl)cc1F)C1CCN(S(=O)(=O)c2cccnc2)CC1,-21.5
2,CCOC(=O)c1c(NCCN(C)C)c2ccccc2[nH]c1=O,8.71
3,CCOc1ccc(C2C(C(=O)c3ccco3)=C(O)C(=O)N2Cc2cccnc2)cc1OC (stereo not shown),-0.462
4,Cc1onc(-c2ccccc2)c1C(=O)Nc1nc(-c2cc(F)ccc2F)cs1,2.36
5,CCOC(=O)c1[nH]nc(-c2cc(CC)c(O)cc2O)c1-c1cscn1,15
6,Cc1ccc(SCC(=O)Nc2nnc(C(C)(C)C)s2)cc1,22.1
7,N#CC(C#N)=C(C#N)c1ccc(Nc2ccccc2)cc1,6.62
8,CC(=O)c1ccc(S(=O)(=O)N(C)CCCC(=O)N2CCN(c3ncccn3)CC2)cc1,-38.4
9,O=C(NC(Cc1c[nH]c2ccccc12)c1nnc2n1CCCCC2)c1ccc(Cl)cc1 (stereo not shown),-38.8
10,O=C(NCCC1=CCCCC1)C(=O)NCC(c1ccco1)N1CCN(c2ccccc2)CC1 (stereo not shown),-15.3
11,CCOC(=O)C1=C(C)NC2=C(C(=O)c3ccccc32)C1c1cccnc1 (stereo not shown),-12.4
12,CCc1ccc(C(=O)CC2(O)C(=O)N(CN3CCOCC3)c3ccccc32)cc1 (stereo not shown),7.69
13,CCOC(=O)c1cc(CC)sc1NC(=O)CC1SC(N)=NC1=O (stereo not shown),-2.87
14,COc1ccc(C(CNc2ncnc3sccc23)N(C)C)cc1OC (stereo not shown),0.613
15,Cc1ccc(CNC(=O)CCn2cc(-c3ccc(C)cc3)nc2CCN)cc1,-26.6
16,Cc1ccc(S(=O)(=O)N2CCC(C(=O)NCCC3=CCCCC3)CC2)cc1C,-11.6
17,CC(C)c1nnc(NC(=O)CCC(=O)NCc2ccco2)s1,2.23
18,Cc1ccc(N(C)C(=O)N2CCN(S(=O)(=O)c3ccc(C)c(C)c3)CC2)cc1,-13.7
19,Oc1c(C(c2cccs2)N2CCN(c3ccccc3)CC2)sc2ncnn12 (stereo not shown),-33.6
20,C=CCn1c(SCC(=O)NC23CC4CC(CC(C4)C2)C3)nc(O)cc1=O,-9.96
21,CC(C)n1c(O)c(/C=C2\C=Nc3ccccc32)sc1=Nc1ccccc1,19.6
22,Fc1ccc2nc(N3CCCCC3)sc2c1,5.89

row,SMILES,"hERG current change (%, negative = inhibition) at 10uM [%]"
1,COCCNC(=S)N/N=C(\C)c1cccc([N+](=O)[O-])c1,-70.4
2,O=C(NCC(c1ccco1)N1CCc2ccccc2C1)c1cccc(F)c1 (stereo not shown),-63.5
3,COc1cc(C2C(C(=O)OCCC#N)=C(C)NC3=C2S(=O)(=O)c2ccccc23)cc(OC)c1OC (stereo not shown),-15.2
4,Cc1cc(-c2ccccc2)nc2cc(C(=O)NCCCn3ccnc3)nn12,-22.2
5,COc1ccc(-c2nc(-c3ccccn3)nc(N3CCN(C)CC3)c2C#N)cc1,-28.7
6,CCOC(=O)N1CCN(C(=S)NCCOC)CC1,13
7,COc1cc(-c2nc3ccc4ccccc4c3c3c2CCC3)ccc1O,13.8
8,COc1ccc(CCNCC(=O)Nc2ccc(OC(F)(F)F)cc2)cc1OC.Cl,-42.2
9,O=C(CCCC(=O)N(CC(=O)NC1CCCC1)c1ccc(F)c(Cl)c1)Nc1ccccn1,-9.24
10,Cc1ccc(S(=O)(=O)c2cccc(S(=O)(=O)N3CCOCC3)c2)cc1S(=O)(=O)N1CCOCC1,13.3
11,O=C(COc1cccc(Cl)c1Cl)Nc1ccc2c(c1)CCC2,10.2
12,COc1ccccc1CNS(=O)(=O)c1c(C)nc2sccn2c1=O,6.31
13,Cc1cc2oc(=O)cc(CN3CCCCC3)c2cc1O,-1.42
14,Cc1ccc(S(=O)(=O)N[C@@H](Cc2ccccc2)C(=O)N2CCC(C(=O)N[C@H](C(=O)O)C(C)O)CC2)cc1 (stereo partly shown),16.5
15,CC(=O)Oc1ccc(C(=O)Nc2cc(C)on2)cc1,16.6
16,CCN1CCN(S(=O)(=O)c2ccc(S(=O)(=O)NC3CC3)cc2)CC1,7.03
17,O=C(CSc1cccc(C(F)(F)F)c1)Nc1ccc(Cl)cc1Cl,8.02
18,COc1cccc(C2NC(=O)NC(C)=C2C(=O)OCC2CCCCC2)c1 (stereo not shown),18.1
19,O=C(N/N=C/c1ccccc1O)c1cccc2ccccc12,18.2
20,COc1ccc(CCN(C)C(=O)CNC(=O)c2ccc3c(c2)OCO3)cc1OC,-5.07
21,Cc1cc(C)cc(NC(=O)C(OC(=O)c2cc[n+]([O-])cc2)c2ccccc2)c1 (stereo not shown),-74
22,CCc1ccc(C2C(C#N)=C(N)SC(N)=C2C#N)s1,20.9
